PubChem BioAssay AID1345083 (National Center for Advancing Translational Sciences (NCATS), 2018)
Out of some 94,000 compounds screened, about 6,200 (6.6%) were called active. Inconclusive means that the source gave no clear call. Such entries were picked first, then a sample of the others. Calls follow the shape of the dose curve; as a rule, active = well fitted inhibition curve with a large enough effect; inconclusive = small, poorly fitted or top-dose-only effect; inactive = flat fitted curve, though single readings scatter. Potencies of inconclusive entries are doubtful fits and often do not repeat.
% is scaled to controls: 0 for no effect and ±100 for the full control effect; potency is read from the fitted curve at half-maximal effect; tags tell the direction and shape of the fitted curve.

Experiment: Cytotoxic Profiling in HEK 293 Cell Line of Diverse Libraries Using Quantitative High-Throughput Screening; also: nearly all actives have a fitted effect of over 60% in size
Details: HEK 293 viability, ATP luminescence (CellTiter-Glo), 48-72 h; activity change, negative = cytotoxicity: at 115 µM (top of the series) unless noted; series mostly up to 115 µM
Method in brief: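 Pintool-delivered compounds were incubated with HEK 293 cells (250 cells/well) at 37 degree Celsius for 48 or 72 hr. ATP-dependent luminescence (CellTiter-Glo) then reported remaining viable cells.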
In the case of CCCc1noc(-c2cn(C3CCN(C(=O)c4ccc(OC)cc4C)CC3)nn2)n1, the Potency is reported as inconclusive: 31.6 µM [inhibitor, partial curve, poor fit]. In the case of O=C(CCC1CCN(C(=O)c2ccccc2)CC1)NCc1cccc(C(F)(F)F)c1, the Potency is reported as inconclusive: 35.5 µM [inhibitor, partial curve, poor fit]. For COc1ccc(-c2cccc(CCOc3cnc4c(ccn4CC(=O)O)c3)c2)c(F)c1, the Potency was inconclusive: 100 µM [inhibitor, single point]. In the case of N#Cc1cccc(CN2CCCCCNC(=O)[C@@H]3CCC[C@@H]32)c1, the “activity change, negative = cytotoxicity” value is reported as inactive: -21.2%. With CCn1cc(S(=O)(=O)N2CC(c3nc(CCOc4cccc(C)c4)no3)C2)cn1 the Potency was inconclusive: 31.6 µM [inhibitor, partial curve, poor fit]. For CCc1noc(-c2ccn3c(CNC(=O)c4c(F)cccc4F)nnc3c2)n1, the Potency was inconclusive: 39.8 µM [inhibitor, full curve]. For Cc1ccc(Cn2cc(-c3ccncc3)cc2C(=O)N(C)Cc2ccccc2)cc1, the Potency was inconclusive: 44.7 µM [inhibitor, partial curve, poor fit]. With CCCCNC(=O)CC(c1cccc([N+](=O)[O-])c1)c1c[nH]c2ccccc12 (stereo not given) the Potency was inconclusive: 39.8 µM [inhibitor, partial curve, poor fit]. For CNC(=O)c1cc(C2CC2)nc2onc(C3CCN(C(=O)c4ccc(F)cc4)C3)c12 (stereo not given), the Potency was inconclusive: 39.8 µM [inhibitor, partial curve]. For CN(C1CCOCC1)C1CCN(C(=O)c2ccnn2C)CC1, the “activity change, negative = cytotoxicity” value was inactive: -10.6%. For COCc1cc(=O)n(CC(=O)Nc2cccc(SC)c2)c(N2CCOCC2)n1, the Potency was inconclusive: 79.4 µM [inhibitor, single point]. In the case of CC(C)C(=O)N1CCC(Oc2ccc3c(cnn3CCC(=O)O)c2)CC1, the “activity change, negative = cytotoxicity” value is reported as inactive: -12.2% [at 172 µM]. For O=C1CO[C@H]2CCN(Cc3ccccc3)CC[C@@H]2N1CCc1cccnc1, the Potency was inconclusive: 126 µM [inhibitor, single point]. In the case of O=C(NC1CCN(Cc2ccccc2)CC1)c1nnn2c1COC(c1ccc(F)cc1)C2 (stereo not given), the Potency is reported as inconclusive: 28.2 µM [inhibitor, partial curve]. For O=C(NC1CCN(c2cc(-c3ccccc3)[nH]n2)CC1)c1cc2ccccc2[nH]1, the Potency was inconclusive: 89.1 µM [inhibitor, single point]. With COCCNC(=O)C[C@@H]1C[C@@H](C(C)C)[C@H](CNS(=O)(=O)c2ccc(OC)cc2)C=C1C the Potency was inconclusive: 79.4 µM [inhibitor, partial curve, poor fit]. In the case of O=S(=O)(N[C@H]1CO[C@H]2[C@@H]1OC[C@@H]2n1nnnc1-c1ccccc1)c1cccc2cccnc12, the “activity change, negative = cytotoxicity” value is reported as inactive: -9.89%. With Cc1ccc(NC(=O)Cn2c(N3CCCCC3)nc(C)c(C)c2=O)cc1C the Potency was active: 22.4 µM. In the case of COc1ccc(C(=O)N2CCO[C@@H](COc3ccccn3)[C@@H]2c2ccccc2)cn1, the “outcome” value is reported as “inactive”. For Fc1ccc(OC2CN(Cc3cccc4ccccc34)C2)c(F)c1, the Potency was inconclusive: 89.1 µM [inhibitor, partial curve]. For CN(C)C(=O)c1ccc2cc[nH]c2n1, the “outcome” value was “inactive [at 230 µM]”. For CCn1cc(CN2CCCCCCNC(=O)[C@@H]3CCC[C@@H]32)cn1, the Potency was inconclusive: 100 µM [inhibitor, single point]. For c1ccc(-c2cnc(Nc3ccncc3)c3c2CCO3)cc1, the Potency was active: 79.4 µM. For CC(C)(C)C(=O)N[C@H]1C[C@@H](Cc2cc(COc3ccccc3)on2)C1(C)C, the Potency was inconclusive: 100 µM [inhibitor, partial curve]. For COc1ccc(-c2ccccc2C(=O)NC2CCc3ccccc32)nn1 (stereo not given), the “activity change, negative = cytotoxicity” value was inactive: 1.39%. With CCc1cccc2c(C(CC(=O)NCc3ccco3)c3ccc(C)cc3)c[nH]c12 (stereo not given) the Potency was active: 35.5 µM. For COc1ccc(CC(=O)N2CCN(C(=O)c3nc4cccnc4n(Cc4ccccc4)c3=O)CC2)cc1, the Potency was inconclusive: 89.1 µM [inhibitor, single point]. In the case of CCCNC(=O)c1coc(COc2ccc3c(c2)C(c2cccc(C)c2)N(C(=O)C2CC2)CC3)n1 (stereo not given), the Potency is reported as active: 12.6 µM. For O=C(Cc1ccccn1)N1CCc2nc(C3CC3)nc(-c3ccc(Cl)cc3)c2C1, the Potency was inconclusive: 8.91 µM [inhibitor, full curve, poor fit]. With Cc1ccc(OCC(=O)c2ccc3c(c2)N(C(C)C(=O)NCC2CC2)C(=O)CO3)cc1C (stereo not given) the Potency was inconclusive: 89.1 µM [inhibitor, partial curve, poor fit]. With CC1=C(C(=O)Nc2ccccc2)C(c2cccc(C)c2)N2C(CC(=O)NC3CC3)=CSC2=N1 (stereo not given) the Potency was inconclusive: 50.1 µM [inhibitor, partial curve, poor fit]. In the case of CC1CCC2(CC1)OCC(C(=O)NCc1ccco1)N2C(=O)c1ccccc1F (stereo not given), the Potency is reported as inconclusive: 56.2 µM [inhibitor, partial curve, poor fit]. With Cc1nn(-c2ccccc2)c2c1C(C1CC1)N(C1CCN(C(=O)c3ccccc3F)C1)C2=O (stereo not given) the Potency was inconclusive: 44.7 µM [inhibitor, partial curve, poor fit]. With COc1cncc(N2CC3(COCC(=O)N(Cc4cccc(OC(F)(F)F)c4)C3)C2)c1 the Potency was inconclusive: 89.1 µM [inhibitor, partial curve]. In the case of CC(C)CNC(=O)C1CCCN(c2nccc(Nc3ccccc3F)n2)C1 (stereo not given), the Potency is reported as inconclusive: 56.2 µM [inhibitor, partial curve, poor fit]. With O=C(c1ccc2nc(-c3ccncc3)oc2c1)N1CCOCC1 the “activity change, negative = cytotoxicity” value was inactive: -21.1%. For Cc1ccc(-c2nnc(C3CN(C(=O)CCC4CCCC4)CC34CCOCC4)o2)cc1 (stereo not given), the Potency was inconclusive: 35.5 µM [inhibitor, partial curve, poor fit]. With CNCC(=O)N1CCC2(CC1)CN(Cc1ccccc1)CC2CO (stereo not given) the “outcome” value was “inactive”. With O=C(C1CCCC1)N1CCc2nc(C3CC3)nc(-c3ccc(Cl)cc3)c2C1 the Potency was inconclusive: 50.1 µM [inhibitor, partial curve, poor fit]. In the case of CCOC(=O)[C@H]1[C@@H](O)C(=O)N(Cc2ccccc2)C12CCN(C(=O)C(C)C)CC2, the “outcome” value is reported as “inactive”.
